SMILES strings stand for the structures. The campaign covered roughly 52,000 compounds. About 4,300 (8.3%) were called active. Rule as the data show it: active = survival mostly below about 52% (no sharp cut-off); inactive = mostly above about 56%. The list shows a part of the results.

The subject of the experiment is DeltatarO mutant. Briefly: S. aureus survival, RN4220 and DeltatarO strains – OD600, teichoic acid synthesis inhibitors, primary screen (AID 463173). The following applies: S. aureus RN4220 wild type/DeltatarO growth, OD600, 18 h, stronger effect = lower value, screened at 18.75 µg/mL (by protocol).
`Cn1nnc2c(NCc3ccccc3)ncnc21`: the survival is active: 32%.

For `Cc1cc(C)cc(-n2c(C)nc3cc(C(=O)NCc4ccc(F)cc4)ccc32)c1`, the survival is inactive: 90%. Turning to `CC(C)c1ccc(NC(=O)CN2C(=O)COc3ccc(S(=O)(=O)N4CCCCC4)cc32)cc1`, the survival was inactive: 71%. Next, `Cc1ccc2scc(N3CCc4ccccc4C3)c(=O)c2c1`: inactive: 73%; `Cc1ccc(C)c(N2CCN(C(=O)Cn3ncc4c(=O)oc5ccccc5c43)CC2)c1`: inactive: 93%. For `COc1cc(OC)cc(-c2nc3nc(C)c(CCC(=O)Nc4ccc(C)c(C)c4)c(C)n3n2)c1` the value was inactive: 73%. In the case of `Cc1ccc(CNC(=O)N2CCC(CN3CCC(C)CC3)CC2)cc1`, the survival is inactive: 103%. In the case of `CCN1CCN(Cc2nc3cc(NC(=O)c4cc(OC)c(OC)c(OC)c4)ccc3n2CC)CC1`, the survival was inactive: 84%.

Turning to `COc1ccc(S(=O)(=O)c2cn(CC(=O)Nc3cc(C)ccc3C)c3ccccc3c2=O)cc1`, the survival was inactive: 86%.

In the case of `COc1ccc(S(=O)(=O)n2nc(-c3ccco3)nc2NCc2ccc(N(C)C)cc2)cc1`, the survival was inactive: 55%. Next, `COc1ccc(NC(=O)Cn2cnc3sc(C)c(S(=O)(=O)N4CCN(c5ccccc5OC)CC4)c3c2=O)cc1OC`: inactive: 67%; `CCC1CN(C(=O)NCc2ccc(C)cc2)c2cc(Cl)ccc2O1` (stereo not given): inactive: 93%. For `Cc1cc(C)cc(NC(=O)Cn2cc(S(=O)(=O)NC(C)(C)C)c(S(=O)(=O)NC(C)(C)C)c2)c1` the value was inactive: 95%; for `CCOc1ccccc1NC(=O)CSc1nnc2[nH]c(=O)cc(-c3ccccc3)n12`, inactive: 98%. As for `O=C(Nc1ccccc1Cl)C1CCN(c2nc3ccccc3nc2C(F)(F)F)CC1`, the survival is inactive: 92%.

For the compound `CCCN1CC=C2C(C#N)=C(N)C(C#N)(C#N)C(C(C)C)C2C1` (stereo not given), the survival is inactive: 90%. For `Cn1c(=O)c2c(-c3cccc(Br)c3)n(C(C)(C)CO)cc2n(C)c1=O` the value was inactive: 84%; for `S=C(NCCCN1CCOCC1)N1CCN(c2ccccc2)CC1`, inactive: 84%. For the compound `COc1cccc(C(=O)N2CCN(CCc3ccncc3)CC2)c1`, the survival was inactive: 87%.

As for `Cc1cccc(-c2cc3nc4c(c(NCCN(C)C)n3n2)CCC4)c1`, the survival was inactive: 116%. Next, `Cc1cc2nc(-c3ccc(OCc4ccccc4Cl)cc3)cc(C(F)(F)F)n2n1`: active: 25%; `Cc1ccc(NS(=O)(=O)c2ccc3c(c2)n(C)c(=O)n3C)cc1C`: inactive: 67%.

On to `O=C1N(Cc2ccccc2)c2ccc(Cl)cc2C1(O)c1c[nH]c2ccccc12` (stereo not given), for which the survival is inactive: 66%.

As to `Fc1ccc(Nc2ncnc3onc(-c4cccc(Cl)c4)c23)c(F)c1`, the survival was inactive: 84%. `COc1cccc2c1cc1c(=O)n(CC(=O)N3CCN(c4ccc(Cl)cc4)CC3)nc(C)n12`: the survival was inactive: 132%.

Source of the values: PubChem BioAssay AID463173 (ICCB-Longwood Screening Facility, Harvard Medical School, 2010).
